Columns and labels:
Assay in all cases: minimum inhibitory concentration
Ampicillin = compound: CC1(C)S[C@@H]2[C@H](NC(=O)[C@H](N)c3ccccc3)C(=O)N2[C@H]1C(=O)O [Ampicillin]
Method: (§1)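 Broth microdilution MIC per ISO 10932 on precoated VetMIC Lact-1 plates (tylosin, vancomycin and ampicillin plates prepared manually) against lactic acid bacteria and bifidobacteria isolates. Plates were read visually after 48 h anaerobic incubation (bifidobacteria 72 h; enterococci and staphylococci 24 h aerobic) at species-specific temperatures of 30 or 37 °C. Values prefixed with < or > are outside the tested dilution range.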

Clindamycin = compound: CCC[C@@H]1C[C@@H](C(=O)N[C@@H]([C@H]2O[C@H](SC)[C@H](O)[C@@H](O)[C@H]2O)[C@H](C)Cl)N(C)C1 [Clindamycin]
Method: as §1

Erythromycin = compound: CC[C@H]1OC(=O)[C@H](C)[C@@H](O[C@H]2C[C@@](C)(OC)[C@@H](O)[C@H](C)O2)[C@H](C)[C@@H](O[C@@H]2O[C@H](C)C[C@H](N(C)C)[C@H]2O)[C@](C)(O)C[C@@H](C)C(=O)[C@H](C)[C@@H](O)[C@]1(C)O [Erythromycin]
Method: as §1

Tetracycline = compound: CN(C)[C@@H]1C(O)=C(C(N)=O)C(=O)[C@@]2(O)C(O)=C3C(=O)c4c(O)cccc4[C@@](C)(O)[C@H]3C[C@@H]12 [Tetracycline]
Method: as §1

Gentamicin = compound: CNC(C)C1CCC(N)C(OC2C(N)CC(N)C(OC3OCC(C)(O)C(NC)C3O)C2O)O1 [Gentamicin]
Method: as §1

Streptomycin = compound: CN[C@@H]1[C@H](O[C@H]2[C@H](O[C@H]3[C@H](O)[C@@H](O)[C@H](N=C(N)N)[C@@H](O)[C@@H]3N=C(N)N)O[C@@H](C)[C@]2(O)C=O)O[C@@H](CO)[C@H](O)[C@H]1O [Streptomycin]
Method: as §1

Vancomycin = compound: CN[C@H](CC(C)C)C(=O)N[C@H]1C(=O)N[C@@H](CC(N)=O)C(=O)N[C@H]2C(=O)N[C@H]3C(=O)N[C@H](C(=O)N[C@H](C(=O)O)c4cc(O)cc(O)c4-c4cc3ccc4O)[C@H](O)c3ccc(c(Cl)c3)Oc3cc2cc(c3O[C@@H]2O[C@H](CO)[C@@H](O)[C@H](O)[C@H]2O[C@H]2C[C@](C)(N)[C@H](O)[C@H](C)O2)Oc2ccc(cc2Cl)[C@H]1O [Vancomycin]
Method: as §1

Neomycin = compound: NC[C@@H]1O[C@H](O[C@H]2[C@@H](O)[C@H](O[C@@H]3[C@@H](O)[C@H](N)C[C@H](N)[C@H]3O[C@H]3O[C@H](CN)[C@@H](O)[C@H](O)[C@H]3N)O[C@@H]2CO)[C@H](N)[C@@H](O)[C@@H]1O [Neomycin]
Method: as §1

Kanamycin = compound: NC[C@H]1O[C@H](O[C@H]2[C@H](O)[C@@H](O[C@H]3O[C@H](CO)[C@@H](O)[C@H](N)[C@H]3O)[C@H](N)C[C@@H]2N)[C@H](O)[C@@H](O)[C@@H]1O [Kanamycin]
Method: as §1

Chloramphenicol = compound: O=C(N[C@H](CO)[C@H](O)c1ccc([N+](=O)[O-])cc1)C(Cl)Cl [Chloramphenicol]
Method: as §1
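Also: isolates derived from commercial starter, protective, probiotic or feed-additive cultures, from fermented products, from human gut mucosa or feces, and from human milk or colostrum.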

| Test System | minimum inhibitory concentration (Ampicillin) [µg/mL] | minimum inhibitory concentration (Clindamycin) [µg/mL] | minimum inhibitory concentration (Erythromycin) [µg/mL] | minimum inhibitory concentration (Tetracycline) [µg/mL] | minimum inhibitory concentration (Gentamicin) [µg/mL] | minimum inhibitory concentration (Streptomycin) [µg/mL] | minimum inhibitory concentration (Vancomycin) [µg/mL] | minimum inhibitory concentration (Neomycin) [µg/mL] | minimum inhibitory concentration (Kanamycin) [µg/mL] | minimum inhibitory concentration (Chloramphenicol) [µg/mL] |
| --- | --- | --- | --- | --- | --- | --- | --- | --- | --- | --- |
| Lactobacillus gasseri IM886 (strain group: human milk or colostrum) | 1 | 8 | 0.12 | 2 | 2 | 8 | 1 | 16 | 64 | 4 |
| Lactococcus lactis IM1466 (strain group: starter cultures) | 1 | 0.12 | 0.25 | 0.5 | 4 | 64 | 0.5 | 8 | 16 | 4 |
| Lactobacillus gasseri/johnsonii IM875 (strain group: human milk or colostrum) | 1 | 4 | 0.12 | 2 | 2 | 16 | 1 | 16 | 128 | 8 |
| Lactobacillus gasseri IM1431 (strain group: starter cultures) | 1 | 2 | 0.06 | 4 | 2 | 4 | 2 | 8 | 32 | 4 |
| Bifidobacterium adolescentis IM801 (strain group: human intestinal mucosa or faeces) | 0.063 | 0.06 | 0.12 | 1 | 64 | 256 | 0.5 | 64 | 512 | 2 |
| Lactococcus lactis IM832 (strain group: starter cultures) | 1 | 0.12 | 0.5 | 0.5 | 4 | 32 | 0.5 | 4 | 4 | 4 |
| Bifidobacterium adolescentis IM780 (strain group: human intestinal mucosa or faeces) | 0.125 | 0.12 | 0.25 | 16 | 256 | 256 | 0.5 | 256 | 512 | 2 |
| Ligilactobacillus salivarius IM845 (strain group: human milk or colostrum) | 2 | 0.12 | 0.25 | 1 | 4 | 32 | > 128 | 4 | 128 | 2 |
| Lactobacillus gasseri IM889 (strain group: human milk or colostrum) | 1 | 8 | 0.25 | 2 | 4 | 8 | 1 | 32 | 128 | 4 |
| Bifidobacterium longum IM1337 (strain group: probiotic strains) | 0.063 | 0.06 | 0.25 | 1 | 4 | 16 | 0.5 | 16 | 32 | 1 |
| Lactococcus lactis subsp. cremoris IM241 (strain group: starter cultures) | 1 | > 16 | 8 | 1 | 64 | 256 | 1 | > 256 | 256 | 4 |
| Bifidobacterium longum IM964 (strain group: human intestinal mucosa or faeces) | 0.125 | 0.06 | 0.06 | 0.25 | 8 | 8 | 0.5 | 32 | 256 | 0.5 |
| Lactobacillus acidophilus IM552 (strain group: probiotic strains) | 1 | 1 | 0.12 | 1 | 4 | 4 | 0.5 | 4 | 64 | 4 |
| Lactobacillus delbrueckii IM1092 (strain group: starter cultures) | 0.25 | 0.06 | 0.06 | 1 | 2 | 2 | 1 | 2 | 16 | 2 |
| Bifidobacterium adolescentis IM777 (strain group: human intestinal mucosa or faeces) | 0.25 | 0.12 | 0.25 | 16 | 128 | 128 | 0.5 | 256 | 512 | 2 |
| Lactobacillus gasseri IM852 (strain group: human milk or colostrum) | 1 | 4 | 0.12 | 1 | 2 | 8 | 1 | 8 | 256 | 4 |

| Test System | minimum inhibitory concentration (Ampicillin) [µg/mL] | minimum inhibitory concentration (Clindamycin) [µg/mL] | minimum inhibitory concentration (Erythromycin) [µg/mL] | minimum inhibitory concentration (Tetracycline) [µg/mL] | minimum inhibitory concentration (Gentamicin) [µg/mL] | minimum inhibitory concentration (Streptomycin) [µg/mL] | minimum inhibitory concentration (Vancomycin) [µg/mL] | minimum inhibitory concentration (Neomycin) [µg/mL] | minimum inhibitory concentration (Kanamycin) [µg/mL] | minimum inhibitory concentration (Chloramphenicol) [µg/mL] |
| --- | --- | --- | --- | --- | --- | --- | --- | --- | --- | --- |
| Lactococcus lactis IM1379 (strain group: starter cultures) | 0.5 | 0.5 | 1 | 0.25 | 1 | 32 | < 0.25 | 2 | 8 | 4 |
| Bifidobacterium longum IM682 (strain group: human intestinal mucosa or faeces) | < 0.032 | 0.06 | 0.12 | 1 | 16 | 128 | < 0.25 | 32 | 128 | 2 |
| Levilactobacillus brevis IM1361 (strain group: non-starter strains) | 4 | 16 | 0.5 | 32 | < 0.5 | 8 | > 128 | 1 | 16 | 8 |
| Streptococcus thermophilus IM1415 (strain group: starter cultures) | 0.125 | < 0.03 | 0.06 | 0.25 | 1 | 4 | < 0.25 | 2 | 16 | 2 |
| Bifidobacterium adolescentis IM756 (strain group: human intestinal mucosa or faeces) | 0.125 | 0.06 | 0.12 | 1 | 64 | 256 | 0.5 | 128 | 512 | 2 |
| Lactococcus lactis IM1347 (strain group: non-starter strains) | 0.5 | 0.25 | 1 | 0.25 | 2 | 32 | < 0.25 | 2 | 8 | 8 |
| Lactobacillus acidophilus IM1385 (strain group: probiotic strains) | 1 | 0.5 | 0.12 | 0.5 | 2 | 4 | 0.5 | 4 | 32 | 4 |
| Bifidobacterium adolescentis IM672 (strain group: human intestinal mucosa or faeces) | 1 | 0.5 | > 8 | 2 | 16 | > 256 | 2 | 128 | 128 | 4 |
| Bifidobacterium longum IM982 (strain group: human intestinal mucosa or faeces) | 0.5 | 0.06 | 0.12 | 1 | 32 | 32 | < 0.25 | 128 | 512 | 1 |
| Bifidobacterium adolescentis IM779 (strain group: human intestinal mucosa or faeces) | 0.125 | 0.25 | 0.25 | 16 | 256 | 128 | 0.5 | 256 | 512 | 2 |
| Lactococcus lactis IM1428 (strain group: starter cultures) | 0.5 | 0.25 | 0.25 | 0.25 | 1 | 16 | < 0.25 | 4 | 4 | 4 |
| Streptococcus thermophilus IM1418 (strain group: starter cultures) | 0.063 | < 0.03 | < 0.016 | 0.25 | < 0.5 | < 0.5 | < 0.25 | < 0.5 | < 2 | 2 |
| Lactococcus lactis IM1330 (strain group: non-starter strains) | 0.5 | 0.5 | 1 | 0.5 | 2 | 32 | 0.5 | 16 | 8 | 4 |
| Lactococcus lactis IM1324 (strain group: non-starter strains) | 1 | 0.5 | 1 | 32 | 4 | > 256 | 0.5 | 16 | 16 | 8 |
| Bifidobacterium adolescentis IM783 (strain group: human intestinal mucosa or faeces) | 0.25 | 0.12 | 0.25 | 16 | 256 | > 256 | 0.5 | > 256 | 1020 | 2 |

Reference: the supplement of paper PMC9542798
